# The whole screen tested about 220,000 compounds, of which about 16,000 (7.3%) were called active. The shares of active, inactive and inconclusive entries below differ from those in the screen. Calls follow the shape of the dose curve; as a rule, active = well fitted inhibition curve with a large enough effect (not every such curve was filed as active); inconclusive = small, poorly fitted or top-dose-only effect, or another doubt; inactive = no such curve, though single readings can be large or run the other way. Potencies of inconclusive entries are left out as doubtful fits.
# Biological target: Aldehyde dehydrogenase 1A1 (Homo sapiens) (UniProt P00352)
# Chain of UniProt P00352 (P00352 whole entry, looked up): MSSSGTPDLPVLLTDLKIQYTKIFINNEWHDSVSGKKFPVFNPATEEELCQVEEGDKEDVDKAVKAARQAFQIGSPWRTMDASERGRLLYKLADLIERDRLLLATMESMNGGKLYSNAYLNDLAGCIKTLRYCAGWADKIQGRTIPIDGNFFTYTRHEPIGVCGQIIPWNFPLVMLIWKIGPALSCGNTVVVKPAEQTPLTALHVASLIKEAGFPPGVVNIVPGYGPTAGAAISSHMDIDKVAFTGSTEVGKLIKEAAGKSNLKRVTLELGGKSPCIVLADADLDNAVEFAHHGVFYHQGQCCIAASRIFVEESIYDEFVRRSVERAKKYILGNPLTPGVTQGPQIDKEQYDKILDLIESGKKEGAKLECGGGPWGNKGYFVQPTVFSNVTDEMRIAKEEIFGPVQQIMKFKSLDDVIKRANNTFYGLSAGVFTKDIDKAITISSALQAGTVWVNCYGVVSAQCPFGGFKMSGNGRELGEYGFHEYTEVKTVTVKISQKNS
# Assay: qHTS Assay for Inhibitors of Aldehyde Dehydrogenase 1 (ALDH1A1);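 as to activity, negative = inhibition: plate controls were no enzyme wells and a reference inhibitor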
# Settings: Purified ALDH1A1, NADH fluorescence, propionaldehyde substrate; series mostly up to 75.3 µM; activity, negative = inhibition: at the top concentration
# Potency is read from the fitted curve at half-maximal effect; tags tell the direction and shape of the fitted curve.
SMILES,Potency,"activity, negative = inhibition"
C/C=C(/C)C(=O)O[C@@H]1c2c(ccc3ccc(=O)oc23)O[C@@H]1C(C)(C)OC(=O)/C(C)=C\C,"inconclusive [inhibitor, single point]",–
Cc1c(NS(=O)(=O)c2ccc(NC3CCCC3)c([N+](=O)[O-])c2)c(=O)n(-c2ccccc2)n1C,–,inactive: 8.67%
Oc1c(C(c2ccccc2)N2CCN(Cc3ccccc3)CC2)sc2ncnn12 (centres undefined),–,inactive: -5.4%
C/C(Cl)=C/Cn1c(SC(C)C)nc2c1c(=O)[nH]c(=O)n2C,active: 5.01 µM,–
CSC1=N/C(=C\c2cccnc2)C(=O)N1c1ccccc1,"inconclusive [inhibitor, single point]",–
Cc1nn(-c2ccccc2)c(C)c1/C=N/NC(=O)c1ccccc1NS(=O)(=O)c1cccs1,"inconclusive [inhibitor, partial curve]",–
O=C(C1=C(O)C(=O)N(c2ccccc2)C1c1ccc([N+](=O)[O-])cc1)c1cccs1 (centres undefined),"inconclusive [inhibitor, single point]",–
O=C(CNC(=O)c1cccs1)NCCN1CCN(c2ccccc2F)CC1,"inconclusive [inhibitor, single point]",–
CCOc1ccccc1Oc1c(C)oc2c(CN3CCN(CCO)CC3)c(O)ccc2c1=O,"inconclusive [inhibitor, partial curve]",–
CCc1cc2c(nc1CC)CCN(CC/C(C)=N/OC[C@@H](O)[C@@H]1O[C@@H]3OC(C)(C)O[C@@H]3[C@H]1O)C2,–,inactive: -3.42% [at 13.5 µM]
COc1ccccc1NC(=O)CCc1nc2ccccc2s1,–,inactive: 0.681%
COc1ccc(OC)c(NC=C2C(=O)OC(C)(C)OC2=O)c1,active: 0.178 µM,–
Cc1c(CN2CCCCC2)c(O)n(CCO)c(=O)c1C#N,"inconclusive [inhibitor, single point]",–
COc1ccc(Nc2c3c(nc4c(-c5ccccc5)c(C)nn24)CCC3)cc1,"inconclusive [inhibitor, partial curve]",–
COc1ccc(-n2nc(C(=O)NCc3ccco3)c3c4ccccc4n(C)c3c2=O)cc1Cl,"inconclusive [inhibitor, single point]",–
CNc1ccc(Br)cc(C(=O)/C=C/c2cccc(Cl)c2Cl)c1=O,"inconclusive [inhibitor, full curve]",–
COCCn1c(=O)cnc2cnc(N3CCN(C)CC3)nc21,"inconclusive [inhibitor, partial curve]",–
COc1ccccc1CN1CCCC2(CCN(C(=O)c3cccc(F)c3)CC2)C1,–,inactive: 7.51%
CC1(C)CC(=O)c2cn3nc(C(F)(F)F)nc3nc2C1,"inconclusive [inhibitor, full curve]",–
COc1ccc(CCn2c(-c3ccco3)nc3ccccc3c2=O)cc1OC,–,inactive: -9.82%
CC1C=CCC2C(=O)N(c3ccc(OC(=O)c4ccco4)cc3)C(=O)C12 (centres undefined),"inconclusive [inhibitor, partial curve]",–
COCCCNc1oc(-c2ccccc2Cl)nc1C#N,"inconclusive [inhibitor, single point]",–
Cc1ccc(C)c(NS(=O)(=O)c2ccc(OCC(=O)NCC3CCCO3)cc2)c1 (centres undefined),"inconclusive [inhibitor, partial curve]",–
O=C(O)c1nccnc1C(=O)N1CCN(c2ccccc2)CC1,"inconclusive [inhibitor, single point]",–
CCOc1cc(S(=O)(=O)NC2CC2)c(OCC)cc1-n1cnnn1,"inconclusive [inhibitor, partial curve]",–

SMILES,Potency,"activity, negative = inhibition"
Cc1cccc(C(=O)Nc2ccccc2C(=O)NCc2cccnc2)c1,–,inactive: 3.55%
O=C(CCN1CCOCC1)N/N=C/c1cc([N+](=O)[O-])ccc1OC(F)F,–,inactive: 9.17%
Clc1ccc2[nH]c3c(N4CCC5(CC4)OCCO5)ncnc3c2c1,"inconclusive [inhibitor, partial curve]",–
Cc1cccnc1N(C(=O)Nc1ccccc1)C1=NCC(C)(C)S1,–,inactive: 3.48%
OCCNCCOc1ccccc1-c1ccccc1,–,inactive: -12.1%
Cc1cc([N+](=O)[O-])ccc1N=Nc1c(N)[nH]n(-c2ccccc2)c1=O,"inconclusive [inhibitor, partial curve, poor fit]",–
N#Cc1nc(-c2ccco2)oc1N1CCCC1,"inconclusive [inhibitor, partial curve]",–
CSc1ccccc1OC1CCN(Cc2ccccc2)CC1,–,inactive: -1.67%
C/C=C/Cn1c(N(C)Cc2ccccc2)nc2c1c(=O)[nH]c(=O)n2C,–,inactive: -3%
CN(C)Cc1ccccc1-c1nccc(Nc2ccc(F)cc2)n1,–,inactive: 12.3%
COc1cccc(NC(=O)CSc2nnc(-c3ccc(C)cc3)o2)c1,–,inactive: 12.7%
CC(C)SCC(=O)Nc1ncc2c(n1)-c1ccccc1CC2,"inconclusive [inhibitor, partial curve]",–
COc1ccc(CCNC(=O)CN2C(=O)c3ccccc3S2(=O)=O)cc1,"inconclusive [inhibitor, single point]",–
Cn1cc(/C=N\NC(=O)C2COc3ccccc3O2)c2ccccc21 (centres undefined),"inconclusive [inhibitor, single point]",–
CC(=O)Nc1ccc(S(=O)(=O)NNC(=O)c2sc(=S)n(C)c2C)cc1,"inconclusive [inhibitor, single point]",–
CCOC(=O)c1c(C)[nH]c(=S)c(C#N)c1-c1ccccc1,"inconclusive [inhibitor, single point]",–
Oc1ccc2ccccc2c1CNc1cnc2ccccc2c1,"inconclusive [inhibitor, partial curve]",–
COc1ccc(-c2cnc(SCC(=O)Nc3nc(C(C)(C)C)cs3)n2Cc2ccco2)cc1,"inconclusive [inhibitor, single point]",–
O=C1Nc2ccccc2N=C(c2ccccc2)C1Br (centres undefined),active: 15.8 µM,–
COc1cc(C(c2sc3nc(C)nn3c2O)N2CC(C)OC(C)C2)cc(OC)c1OC (centres undefined),–,inactive: 4.1%
CC(O)C(=O)N/N=C/c1cccc2ccccc12 (centres undefined),"inconclusive [inhibitor, single point]",–
Cc1nc(NC(=O)c2ccc(Cl)cc2)nc2cc3c(cc12)OCO3,"inconclusive [inhibitor, single point]",–
Cc1cccnc1CN1CCN(Cc2nc(C(c3ccccc3)c3ccccc3)no2)CC1,"inconclusive [inhibitor, single point]",–
COc1ccccc1OCCCCCNCCO,"inconclusive [inhibitor, single point]",–
C/C(CCc1ccccc1)=N/NC(=O)C(=O)NC(C)c1ccccc1 (centres undefined),–,inactive: 2.32%

SMILES,Potency,"activity, negative = inhibition"
O=C(NC(=S)Nc1cccc2ncccc12)c1ccco1,–,inactive: -1.78%
CC(C)OC(=O)CCCNc1ccc([N+](=O)[O-])cc1[N+](=O)[O-],"inconclusive [inhibitor, partial curve]",–
CCCCNC(=O)Cc1c(O)c2ccccc2[nH]c1=O,"inconclusive [inhibitor, single point]",–
O=C(CCC1CCCC1)N1CCN(C(=O)c2ccco2)CC1,"inconclusive [inhibitor, single point]",–
Cc1ccccc1CSCC(=O)c1c(N)n(C)c(=O)n(C)c1=O,–,inactive: -5.71%
CN(N)c1nc2ccccc2nc1C(F)(F)F,–,inactive: 4.94%
N#Cc1cc(-c2ccccc2)oc1/N=C/c1ccccc1O,"inconclusive [inhibitor, partial curve]",–
CC(C)N(C1=N/C(=C\c2ccco2)C(=O)N1c1ccccc1)C(C)C,"inconclusive [inhibitor, single point]",–
CC(=O)Nc1ccc(NC(=O)c2ccc(C3SCC(=O)N3CCc3ccccc3)cc2)cc1 (centres undefined),active: 25.1 µM,–
COc1cc([N+](=O)[O-])ccc1NC(=O)CSc1nnc(C)c(C)n1,–,inactive: -3.54%
CC(NC(=O)c1cccs1)c1nnc(SCc2ccc(Cl)cc2Cl)n1C (centres undefined),–,inactive: 15%
O=C1Nc2ccccc2C(=O)C1(Cl)Cc1ccccc1 (centres undefined),active: 14.1 µM,–
O=C(CCCn1c(=O)c2ccccc2n(Cc2ccccc2)c1=O)NCc1ccco1,"inconclusive [inhibitor, partial curve]",–
CCOC(=O)C1=C(c2ccccc2)NC(=S)NC1c1ccc(Cl)c([N+](=O)[O-])c1 (centres undefined),active: 0.708 µM,–
COC(=O)c1ccc(NC(=O)CSc2nccn2CCc2ccccc2)cc1,active: 20 µM,–
O=C(C1CC(=O)N(C2CCCC2)C1)N1CCN(c2ccccc2F)CC1 (centres undefined),–,inactive: 2.58%
COCCNc1nc(C)c(C(C)=O)s1,"inconclusive [inhibitor, single point]",–
N#CC(C(=O)c1ccccc1)=C1SCCS1,active: 14.1 µM,–
O=C(C(Cc1ccc(Cl)cc1)NS(=O)(=O)c1ccccc1)N1CC[C@@]2(O)CCCC[C@H]2C1 (some centres undefined),"inconclusive [inhibitor, single point]",–
CCc1c(C(=O)N/N=C/c2ccsc2)csc1C,"inconclusive [inhibitor, single point]",–
Cc1c(-n2c(-c3ccccc3Cl)n[nH]c2=S)c(=O)n(-c2ccccc2)n1C,–,inactive: 6.92%
CC(=O)N1CCC2(CC1)C/C(=N\NC(=S)Nc1ccccc1C)c1cc(O)ccc1O2,"inconclusive [inhibitor, single point]",–
CSc1ccc(C2C(C#N)=C(N)Oc3cc4c(cc32)OCO4)cc1 (centres undefined),"inconclusive [inhibitor, single point]",–
O=C(CCN1C(=O)C2C3C=CC(C3)C2C1=O)Nc1ccc2ncccc2c1 (centres undefined),"inconclusive [inhibitor, partial curve]",–

# Reference: PubChem BioAssay AID1030 (National Center for Advancing Translational Sciences (NCATS), 2008)
